“And” between values parts separate entries of the source, which are not always exact repeats. Equal entries are not always repeated. About 6,400 (1.6%) of roughly 410,000 compounds were called active. The shares of active, inactive and inconclusive entries below differ from those in the screen. Calls follow the shape of the dose curve; as a rule, active = well fitted inhibition curve with a large enough effect; inconclusive = small, poorly fitted or top-dose-only effect; inactive = no such curve, though single readings can be large or run the other way. Where the call is inconclusive, the potency comes from a doubtful curve fit.
target: Glucagon-like peptide 1 receptor (Homo sapiens) (UniProt P43220); assay: qHTS of GLP-1 Receptor Inverse Agonists (Inhibition Mode); details: HEK293 GLP-1R CRE-luciferase, luminescence, 24 h, GLP-1R form is constitutively active; activity change, negative = inhibition: at 38.3 µM (top of the series) unless noted; also: nearly all actives have a fitted effect of over 55% in size
Chain of UniProt P43220 (P43220 whole entry, looked up): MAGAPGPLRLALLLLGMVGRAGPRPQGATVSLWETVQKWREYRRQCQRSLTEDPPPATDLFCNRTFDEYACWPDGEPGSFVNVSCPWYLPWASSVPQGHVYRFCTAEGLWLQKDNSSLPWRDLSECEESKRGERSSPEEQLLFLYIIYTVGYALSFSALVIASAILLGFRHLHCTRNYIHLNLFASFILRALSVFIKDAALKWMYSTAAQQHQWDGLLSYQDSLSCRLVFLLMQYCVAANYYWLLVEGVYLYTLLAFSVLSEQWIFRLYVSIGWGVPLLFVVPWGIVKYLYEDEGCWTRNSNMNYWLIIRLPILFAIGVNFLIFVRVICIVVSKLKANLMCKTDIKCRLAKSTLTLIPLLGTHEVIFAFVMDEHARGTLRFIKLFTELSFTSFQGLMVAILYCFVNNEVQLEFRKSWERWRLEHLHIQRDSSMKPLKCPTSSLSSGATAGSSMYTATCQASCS
Procedure, shortened: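 Cells are plated, allowed 12 hours at 37 deg C, then treated with compounds for 24 hr before luciferase detection reagent is added and luminescence is read after 12 min at room temperature. The HEK293 line carries constitutively active GLP-1R with a cAMP-responsive reporter.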
% is scaled to controls: 0 for no effect and ±100 for the full control effect; potency is read from the fitted curve at half-maximal effect; tags tell the direction and shape of the fitted curve.

Row | Compound | Potency | activity change, negative = inhibition
1 | O=C1CSC2(C(=O)N(Cc3ccccc3F)c3ccccc32)N1c1cccc(C(F)(F)F)c1 (stereo not given) | inconclusive: 28.2 µM [inhibitor, single point] | 
2 | CCN(CC(=O)Nc1ccccc1OC)Cc1csc(CC(=O)Nc2ccc(C)cc2)n1 | inconclusive: 12.6 µM [inhibitor, single point] | 
3 | CC(C)Oc1ccc(C(=O)N2CCC(c3nc4ccccc4o3)CC2)cc1 |  | inactive: -11.6%
4 | N=c1n(CCCOc2ccccc2Cl)c2ccccc2n1CC(N)=O | inconclusive: 12.6 µM [inhibitor, single point] | 
5 | Cc1ccc(NS(=O)(=O)c2ccc(-c3cnc(C4CC4)o3)cc2)cc1N(C)C | inconclusive: 12.6 µM [inhibitor, partial curve, poor fit] | 
6 | Nc1nc(NCc2c(F)cccc2Cl)nn1-c1ccccc1 |  | inactive: -18.6%
7 | Cc1cc(OCC(O)CN(C)C(=O)C(C)Oc2ccccc2)ccc1Cl (stereo not given) | inconclusive: 11.2 µM [inhibitor, partial curve, poor fit] | 
8 | COc1ccccc1C(CCN(Cc1ccccc1)C(C)=O)c1ccco1 (stereo not given) | inconclusive: 10 µM [inhibitor, partial curve, poor fit] | 
9 | CN(CC(=O)Nc1cccc(F)c1)C(=O)c1cc(-c2ccco2)nc2ccccc12 | inconclusive: 22.4 µM [inhibitor, single point] | 
10 | CC1(C)Cc2ccccc2-c2nnnn21 |  | inactive: 8.7%
11 | COc1ccc(CCNc2cc(C)nc3c(-c4ccccc4OC)cnn23)cc1OC | inconclusive: 10 µM [inhibitor, partial curve, poor fit] | 
12 | Cc1ccccc1C(=O)NCCN1CCC(n2c(=O)[nH]c3ccccc32)CC1 |  | inactive: 24.7%
13 | Cc1ccc(NC(=O)Cn2nnc(C(=O)Nc3ccc(C)c(C)c3)c2N)cc1 |  | inactive: -5.06%
14 | COc1cccc(C(=O)Nc2nc3ccc(S(=O)(=O)N4CCCC4)cc3s2)c1 | inconclusive: 0.891 µM [inhibitor, full curve, poor fit] | 
15 | O=C(CSc1nnc(N2CCOCC2)n1-c1cccc(F)c1)N1CCN(c2ccccn2)CC1 | inconclusive: 6.31 µM [inhibitor, partial curve] | 
16 | Cc1ccc(-n2nc3c(N4CCC(C(=O)NCc5ccc(C)o5)CC4)nnc(C)c3c2C)cc1 | inconclusive: 20 µM [inhibitor, partial curve, poor fit] | 
17 | O=C(Nc1ccc(Br)cc1)c1cc(-c2cccs2)nc2ccccc12 |  | inactive: 3.59%
18 | O=c1cc(N2CCN(c3ccccc3Cl)CC2)[nH]c(=O)n1Cc1ccc(F)cc1 | inconclusive: 0.891 µM [inhibitor, full curve, poor fit] | 
19 | CCOC(=O)CNC(=S)N(CCCN1CCCCCC1)Cc1cccs1 | inconclusive: 8.91 µM [inhibitor, partial curve, poor fit] | 
20 | C[C@H]1COC[C@@H](C/C=C/c2ccccc2)N1c1ccccc1 | inconclusive: 14.1 µM [inhibitor, single point] | 

Row | Compound | Potency | activity change, negative = inhibition
21 | CN1CCC(=C2c3ccccc3CCc3sccc32)CC1 | inconclusive: 12.6 µM [inhibitor, partial curve, poor fit] | 
22 | COc1ccccc1NC(=O)Nc1ccc(S(=O)(=O)Nc2onc(C)c2C)cc1 |  | inactive: 10.6%
23 | CC(C)N(C(=O)[C@H]1C[C@H](CC(=O)NCCCn2ccnc2)C(=O)N2CCc3c([nH]c4ccc(Cl)cc34)[C@]12C)C(C)C | inconclusive: 28.2 µM [inhibitor, single point] | 
24 | O=S(=O)(c1cc(Cl)ccc1Cl)N1CC2CCCN2c2ccc(C(F)(F)F)cc21 (stereo not given) | inconclusive: 10 µM [inhibitor, partial curve, poor fit] | 
25 | Cc1cnc(NC(=O)c2cc3c(s2)CCCC3)s1 | inconclusive: 10 µM [inhibitor, single point] | 
26 | COCC(=O)NNC(=O)c1ccccc1OC |  | inactive: 1.45%
27 | COc1ccc(NC(=O)CSCC(=O)N(C)Cc2ccc(Cl)c(Cl)c2)cc1 | active: 10 µM | 
28 | COc1ccc(C(=O)Nc2cc(S(=O)(=O)N3CCCCC3)ccc2C)cc1 | inconclusive: 12.6 µM [inhibitor, partial curve, poor fit] | 
29 | O=S(=O)(/N=C(/Nc1ccccn1)c1ccccc1)c1ccc(Cl)cc1 | inconclusive: 28.2 µM [inhibitor, single point] | 
30 | CC(C)(C)Nc1c(C2CCNCC2)nc2c(OCc3ccccc3)cccn12 | inconclusive: 31.6 µM [inhibitor, single point] | 
31 | COc1ccc(/C=C/c2ccc3c(Br)ccc(O)c3n2)cc1 |  | inactive: -0.378%
32 | O=C(CCS(=O)(=O)c1ccc(Cl)cc1)Nc1nc(-c2ccncc2)cs1 | inconclusive: 3.55 µM [inhibitor, full curve, poor fit] | 
33 | CN1CCC(N(C)C(=O)c2ccc(Cl)c(S(=O)(=O)N3CCc4ccccc43)c2)CC1 | inconclusive: 7.08 µM [inhibitor, partial curve, poor fit] | 
34 | CC(C)(C)C1CCC(=NNc2ccc(S(N)(=O)=O)cc2[N+](=O)[O-])CC1 (stereo not given) | inconclusive: 28.2 µM [inhibitor, single point] | 
35 | COc1ccc(-c2cn[nH]c2-c2ccc(OCc3ccccc3)cc2O)cc1 | active: 3.55 µM | 
36 | COC(=O)C1=C(C)N(Cc2ccccc2)C(=NCCc2c[nH]c3ccccc23)N[C@H]1c1cccc(F)c1 | inconclusive: 12.6 µM [inhibitor, single point] | 
37 | Cc1ccc2oc(C(=O)N(Cc3ccc(N(C)C)cc3)CC3CCCO3)c(C)c2c1 (stereo not given) | inconclusive: 14.1 µM [inhibitor, single point] and inconclusive: 11.2 µM [inhibitor, single point] | 
38 | CC(=NNC(=S)SCc1ccccc1)c1ccccn1 | inconclusive: 1 µM [inhibitor, full curve, poor fit] | 
39 | C=CCn1c(CC(C)(C)C)nc2ccccc21 | inconclusive: 8.91 µM [inhibitor, partial curve, poor fit] | 
40 | Cc1ccc(C)c(N2C(=O)CC(Cc3ccc(Cl)cc3)C2=O)c1 (stereo not given) | inconclusive: 31.6 µM [inhibitor, single point] | 
